# Data published in PubChem BioAssay AID686978 (National Center for Advancing Translational Sciences (NCATS), 2013).
# Where “and” joins values, the source holds several entries; their conditions need not be identical. Equal entries are not always repeated. Screen size: about 420,000 compounds; about 64,000 (15%) were called active. The inconclusive results got no clear call from the source; some entries with a clear call stand among them for comparison. The call rests on the fitted dose curve; in most records, active means well fitted inhibition curve with a large enough effect; inconclusive means small, poorly fitted or top-dose-only effect; inactive means flat fitted curve, though single readings scatter. Potencies of inconclusive entries are left out as doubtful fits. Some structures have more than one record in an assay (separate samples or runs), and their calls can disagree.
# Assay: qHTS for Inhibitors of human tyrosyl-DNA phosphodiesterase 1 (TDP1): qHTS in cells in absence of CPT; further: nearly all actives have a fitted effect of over 55% in size
# Conditions: DT40 Tdp1-/- hTDP1 cells, no CPT, ATP luminescence, 48 h; activity change, negative = growth inhibition: at 46.2 µM (top of the series) unless noted
# Outline: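 No-CPT arm: Tdp1-/-;hTDP1 DT40 cells (400/well) plus compounds, incubated ≥48 hr at 37 °C. Readout CellTiter-Glo luminescence.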
# On the % scale 0 is the no-effect control and ±100 the full control effect; potency means the concentration at half of the fitted maximal effect; tags describe the fitted curve by direction and shape.
Compound,Potency,"activity change, negative = growth inhibition"
Cc1nc2cnc(N3CCNCC3)nc2n(CCc2ccccc2)c1=O,"inconclusive [inhibitor, single point]",–
N#CCC(=O)c1ccccc1Oc1ccc(Cl)cc1,–,inactive: -15.2%
NS(=O)(=O)c1ccc(CCNS(=O)(=O)c2cccc(C(=O)O)c2)cc1,–,inactive: 1.29%
CCOc1cc(C(=O)Nc2ccc(S(=O)(=O)Nc3cc(OC)nc(OC)n3)cc2)cc(OCC)c1OCC,–,inactive: -24.7%
CCCCn1c(SCC(=O)NCc2ccccc2)nc2ccc(N3CCOCC3)cc2c1=O,active: 1.46 µM,–
CCCCOc1ccc(C(=O)NCC(=O)N2CCN(Cc3ccc4c(c3)OCO4)CC2)cc1,active: 13 µM,–
COC(=O)c1ccc(Cn2c(SCC(=O)N(C)c3ccccc3)nc3ccccc32)cc1,active: 23.1 µM,–
O=C(Nc1ccc(Cl)cc1)Nc1cnccn1,"inconclusive [inhibitor, single point]",–
Cc1cccc(NC(=O)CSc2nccn2Cc2ccco2)c1C,–,inactive: 1.38%
CC(C)Cn1c(CNC(=O)c2ccccc2)nc2ccccc21,"inconclusive [inhibitor, single point]",–
CCOC(=O)N1CCN(C(=O)C[C@@H]2C[C@@]3(C(=O)OC)CCCCC=C3N(Cc3ccc(Cl)cc3Cl)C2=O)CC1,active: 11.6 µM,–
Cc1cnc(SCc2ccccn2)nc1C1CCCN(C(=O)c2noc3c2CCCC3)C1 (centres undefined),active: 14.6 µM,–
Cc1[nH][nH]c(=O)c1/C=N/N1CCOCC1,–,inactive: 14%
Cc1ccc(S(=O)(=O)N(C)C)cc1NC(=O)COC(=O)c1ccc2c(c1)OCCO2,"inconclusive [inhibitor, single point]",–
O=S1(=O)c2ccc(Br)cc2N2CCC[C@@H]2CN1Cc1ccc(Cl)cc1,"inconclusive [inhibitor, single point]",–
Cc1ccc(S(=O)(=O)n2nc(C)cc2N)cc1,–,inactive: -2.97%
COc1ccc(-c2cc(-c3ccc(F)cc3)nc(N3CCN(C)CC3)n2)cc1,"inconclusive [inhibitor, single point]",–
CCOC(=O)N1CCC(Nc2ncnc3c2cnn3-c2ccc(C)cc2C)CC1,active: 8.2 µM,–
Oc1ccc(C[C@@H](CN2CCC[C@@H]2CN2C(=S)NC[C@@H]2Cc2ccccc2)N2C[C@H](Cc3ccccc3)N(CCc3ccccc3)C2=S)cc1,active: 18.4 µM,–
Clc1cccc(Cc2c(-c3ccccc3)nc3ccc(Br)cn23)c1,"inconclusive [inhibitor, single point]",–
COc1ccc(-c2c(-c3ccc(OC)cc3O)nc(C)nc2C(F)(F)F)cc1,"inconclusive [inhibitor, single point]",–
Cc1cccc(C)c1NC(=O)CNC(=O)C(Cc1ccccc1)NC(=O)c1ccccc1 (centres undefined),"inconclusive [inhibitor, partial curve]",–
COc1ccc(-c2csc(NC(=O)CSCC(=O)Nc3cc(C)on3)n2)cc1OC,"inconclusive [inhibitor, partial curve]",–
CNc1cc(-c2c(C)noc2C)ncn1,active: 14.6 µM,–
CCN(C[C@H]1N[C@@](C)(C(=O)OC)[C@H]2C(=O)N(C)C(=O)[C@@H]12)S(=O)(=O)c1ccc(F)cc1,–,inactive: -10.1%

Compound,Potency,"activity change, negative = growth inhibition"
Cc1ccc(N2C(=O)c3cccc4cccc(c34)C2=O)cc1,–,inactive: -1.46%
O=C(CCNC(=O)c1ccccc1Cl)NN=Cc1ccccc1[N+](=O)[O-],"inconclusive [inhibitor, partial curve]",–
Brc1cccc(-c2nnc3sc(CNCc4ccco4)cn23)c1,"inconclusive [inhibitor, single point]",–
CCc1ccccc1NC(=O)N1C2CCCC1CC(NC(C)=O)C2 (centres undefined),–,inactive: -0.469%
O=C(NCc1ccccc1)c1ccc2c(c1)nc1n2CCCCC1,"inconclusive [inhibitor, partial curve]",–
CC(CN1CCCCC1)OC(=O)c1ccc(Cl)cc1 (centres undefined),–,inactive: -10.1%
CCC(NC(=O)c1ccccc1NC(=O)c1ccco1)C(=O)NC1CCCCC1 (centres undefined),"inconclusive [inhibitor, partial curve, poor fit]",–
Cc1cc(C)n(Cc2ccc(C(=O)Nc3ccc(Br)cc3C)o2)n1,"inconclusive [inhibitor, single point]",–
COc1ccc(C(CNC(=O)Nc2cccc(C)c2)N2CCN(C)CC2)cc1 (centres undefined),–,inactive: 20.8%
COc1ccc(N(C(=O)c2snc(C(N)=O)c2N)C(C(=O)NCc2ccc(F)cc2)c2ccc(O)cc2)cc1 (centres undefined),"inconclusive [inhibitor, single point]",–
CCOc1cccc(C(=O)Nc2ccc3oc(Cc4ccc(Cl)cc4)nc3c2)c1,"inconclusive [inhibitor, single point]",–
O=C(c1ccc(Cl)cc1)N1CCc2ccccc21,"inconclusive [inhibitor, single point]",–
COc1ccc(N(CC(=O)Nc2ccc(S(=O)(=O)N3CCCCC3)cc2)S(C)(=O)=O)cc1OC,"inconclusive [inhibitor, partial curve, poor fit]",–
CCn1ccc(C(=O)Nc2ccc(S(=O)(=O)Nc3ccccc3OC)cc2)n1,–,inconclusive: -31.3% [inhibitor]
Cc1cc(NC(=O)c2csc([C@@H]3O[C@H](CO)[C@H](O)[C@H](O)[C@H]3O)n2)n(C)n1,–,inactive: -2.11%
COc1cc2c(cc1OC)CN(C(=O)CC1CC3CCC1C3)CC2 (centres undefined),"inconclusive [inhibitor, single point]",–
Cc1cnc(C(=O)N2CCN(S(=O)(=O)c3cccc(Br)c3)CC2)cn1,–,inconclusive: -35% [inhibitor]
OC(c1ccccc1)(c1ccccc1)C1CCN(C(=S)NCCc2ccccc2)CC1,"inconclusive [inhibitor, single point]",–
CC1Cc2ccccc2N1C(=O)CN1CCC(C(N)=O)CC1 (centres undefined),–,inactive: -14%
O=C(C1CCN(S(=O)(=O)c2ccc(Br)cc2)CC1)N1CCOCC1,–,inactive: 17.8%
Cc1cnc(CNc2nc(-c3cccnc3)nc3ccccc23)cn1,–,inactive: -8.11%
COc1cc(NC(=S)N2CCN(S(=O)(=O)c3ccc(F)cc3)CC2)cc(OC)c1,–,inactive: 3.27%
COc1cc(Nc2c3c(nc4ccccc24)CCC3)cc(OC)c1OC,active: 2.06 µM,–
c1ccc(-c2nnc(-c3ccccn3)s2)nc1,"inconclusive [inhibitor, partial curve]",–
COc1ccc(-c2cc(C(F)(F)F)nc(SCCC(=O)NCc3ccco3)n2)cc1,"inconclusive [inhibitor, partial curve]",–

Compound,Potency,"activity change, negative = growth inhibition"
O=C(C1CC1)N1c2ccccc2Sc2ccccc21,"inconclusive [inhibitor, single point]",–
Cc1cccc(C#Cc2ccccc2)n1,inactive and active: 29.9 µM,–
CCOc1cc(C(=O)N2CCC(CC3CC(c4ccccc4)=NO3)(C(=O)NCc3ccc(OC)cc3)CC2)cc(OCC)c1OCC (centres undefined),active: 16.4 µM,–
COc1ccc(/C=C2\CCCC3C2=NN(C(=O)COC(=O)CNC(=O)c2ccccc2)C3c2ccc(OC)cc2)cc1 (centres undefined),"inconclusive [inhibitor, single point]",–
CCN(CC)CC(=O)Nc1sc(C)cc1C(=O)c1ccccc1,"inconclusive [inhibitor, single point]",–
O=C(CCn1c(=S)oc2ccccc21)NCCC1=CCCCC1,–,inactive: -1.46%
Cc1ccc(NC(=O)COC(=O)C2CC2(Cl)Cl)cc1C (centres undefined),"inconclusive [inhibitor, single point]",–
Cc1ccc(NC(=O)CSCC(=O)NC2(C)CCS(=O)(=O)C2)cc1 (centres undefined),–,inactive: 1.81%
COc1cc(Oc2ccccc2)nc(N)n1,–,inactive: -13.4%
O=C(NCc1ccco1)c1ccc2c(c1)N(Cc1ccc(Cl)cc1)CCS2,"inconclusive [inhibitor, single point]",–
O=C(NCc1ccco1)c1ccc2nc([C@@H]3O[C@H](CO)[C@H](O)[C@H](O)[C@H]3O)[nH]c2c1,–,inactive: 1.17%
Clc1nnc(N2CCCCC2)c2ccccc12,"inconclusive [inhibitor, partial curve]",–
Nc1ccn(C2OC(COP(=O)(O)O)C(O)C2O)c(=O)n1 (centres undefined),active: 1.16 µM,–
COc1ccc(NC(=O)Cn2nnc3ccccc32)c([N+](=O)[O-])c1,"inconclusive [inhibitor, partial curve]",–
COc1ccc(NS(=O)(=O)c2ccc(N3CCCCC3)c(N)c2)cc1,active: 1.3 µM,–
O=C(Nc1ccc(Br)cc1)c1ccco1,"inconclusive [inhibitor, full curve]",–
Cc1cc(C)nc(NC(=O)c2ccc(Cl)cc2[N+](=O)[O-])c1,–,inactive: -21.9%
CC(NC(=O)CN1CCN(c2ccccc2F)CC1)c1ccccc1 (centres undefined),–,inactive: -14.5%
CC1CCCC(NCC(O)COC(c2ccc(F)cc2)c2ccc(F)cc2)C1C (centres undefined),active: 2.59 µM,–
Cc1ccc(-c2cc(C(F)(F)F)c(C#N)c(SCC(=O)O)n2)cc1,"inconclusive [inhibitor, single point]",–
O=C(Cn1c(=O)c2cccn2c2ccc(F)cc21)N1CCN(c2ccccc2)CC1,–,inactive: -15.3%
Cc1ccc(SCc2[nH]nc3c2C2(C(=O)N(C)c4ccccc42)C(C#N)=C(N)O3)cc1 (centres undefined),"inconclusive [inhibitor, single point]",–
O=C(Cc1cccc(NC(=O)C2CCCN(C(=O)C3CCCCC3)C2)c1)Nc1ccc(C(=O)N2CCOCC2)cc1 (centres undefined),–,inactive: -0.969%
Nc1nc(NCc2ccc(Cl)c(Cl)c2)c2[nH]cnc2n1,active: 15.8 µM and active: 12.6 µM,–
